Measurements reported in a collection of fitness landscapes (doi:10.1126/science.1257360).
This is one part of the list.

B1: PhoQ; a variant is named by its letters at X, in order, P23837 (parent)
chain: MKKLLRLFFPLSLRVRFLLATAAVVLVLSLAYGMVALIGYSVSFDKTTFRLLRGESNLFYTLAKWENNKLHVELPENIDKQSPTMTLIYDENGQLLWAQRDVPWLMKMIQPDWLKSNGFHEIEADVNDTSLLLSGDHSIQQQLQEVREDDDDAEMTHSVAVNVYPATSRMPKLTIVVVDTIPVELKSSYMVWSWFIYVLSANLLLVIPLLWVAAWWSLRPIEALAKEVRELEEHNRELLNPATTRELTSLVRNLNRLLKSERERYDKYRTTLTDLTHSLKTPLXXLQXXLRSLRSEKMSVSDAEPVMLEQISRISQQIGYYLHRASMRGGTLLSRELHPVAPLLDNLTSALNKVYQRKGVNISLDISPEISFVGEQNDFVEVMGNVLDNACKYCLEFVEISARQTDEHLYIVVEDDGPGIPLSKREVIFDRGQRVDTLRPGQGVGLAVAREITEQYEGKIVAGESMLGGARMEVIFGRQHSAPKDE

Variants of: B1
Experiment: enrichment ratio after two sorts for PhoP signalling (ratio (wild type AVST 3.29)); higher = more functional
Details: with PhoP (E. coli)

Variant | enrichment ratio
MFWN | ≤ 0.25
KNFL | ≤ 0.25
YYQD | ≤ 0.25
LFLA | ≤ 0.25
LHET | ≤ 0.25
VVMV | ≤ 0.25
ADEA | ≤ 0.25
HIKW | ≤ 0.25
YKMP | ≤ 0.25
AKYL | ≤ 0.25
TAKS | ≤ 0.25
DEPV | ≤ 0.25
SLCQ | 9.86
WFNL | ≤ 0.25
QAMR | ≤ 0.25
ADMI | 12.7
AGCN | 0.292
NVWW | ≤ 0.25
HKPK | ≤ 0.25
WHVP | ≤ 0.25
QINF | ≤ 0.25
INIC | ≤ 0.25
ANVI | 5.15
GRQL | ≤ 0.25
PQGA | ≤ 0.25
DEQL | ≤ 0.25

Variant | enrichment ratio
GFDP | ≤ 0.25
YMSE | ≤ 0.25
AENH | 0.296
AGTR | ≤ 0.25
TWNN | 0.76
SQTH | 3.03
KDQN | ≤ 0.25
TIHI | 7.71
RDRD | ≤ 0.25
TYVI | ≤ 0.25
DPMS | ≤ 0.25
VYRR | ≤ 0.25
RWES | ≤ 0.25
VGQV | ≤ 0.25
GPYC | ≤ 0.25
EPMC | ≤ 0.25
MILV | 13
SFSP | ≤ 0.25
CTSF | 3.85
VMFF | ≤ 0.25
QSLL | 0.391
PGHS | ≤ 0.25
VFFP | ≤ 0.25
KTFF | ≤ 0.25
FCGG | ≤ 0.25
EHFS | ≤ 0.25

Variant | enrichment ratio
IGEL | ≤ 0.25
RETF | ≤ 0.25
NWWH | ≤ 0.25
VHQV | ≤ 0.25
YCDW | ≤ 0.25
EDAV | ≤ 0.25
GKCG | ≤ 0.25
GNKQ | ≤ 0.25
TSCV | 17.3
IYGM | ≤ 0.25
FGYT | ≤ 0.25
WNGD | ≤ 0.25
DDMY | ≤ 0.25
NDTD | ≤ 0.25
GSGA | ≤ 0.25
QKFT | ≤ 0.25
PNNS | ≤ 0.25
VDTM | ≤ 0.25
GKLF | ≤ 0.25
ELEC | ≤ 0.25
TLSD | 0.963
GMIG | ≤ 0.25
SHAP | ≤ 0.25
ERRQ | ≤ 0.25
NPAS | ≤ 0.25
HGCS | ≤ 0.25

Variant | enrichment ratio
ISKC | ≤ 0.25
ETLE | ≤ 0.25
HCFA | ≤ 0.25
TPNL | ≤ 0.25
QYSN | ≤ 0.25
QGLR | ≤ 0.25
GGYD | ≤ 0.25
EEQN | ≤ 0.25
IYDG | ≤ 0.25
TIIM | ≤ 0.25
ETFF | ≤ 0.25
YAFG | ≤ 0.25
LNIW | ≤ 0.25
QTDT | 8.6
EYHF | ≤ 0.25
YWSS | ≤ 0.25
NQCH | ≤ 0.25
YQPM | ≤ 0.25
KTNT | ≤ 0.25
WSVG | ≤ 0.25
KSAC | ≤ 0.25
VEYQ | ≤ 0.25
STHW | ≤ 0.25
VLLF | ≤ 0.25
ISHT | ≤ 0.25
HSHM | ≤ 0.25

Variant | enrichment ratio
LDIR | ≤ 0.25
QAQK | ≤ 0.25
LTRE | ≤ 0.25
IDLV | ≤ 0.25
PPSA | ≤ 0.25
QNIE | ≤ 0.25
AEYY | ≤ 0.25
GCRG | ≤ 0.25
PPGY | ≤ 0.25
YFDF | ≤ 0.25
ESCC | ≤ 0.25
TLNI | 1.09
SLMT | ≤ 0.25
PDFY | ≤ 0.25
ARLQ | 0.516
PVKG | ≤ 0.25
DEPC | ≤ 0.25
DHMT | ≤ 0.25
LSDF | ≤ 0.25
IPRE | ≤ 0.25
YFCN | ≤ 0.25
GNYR | ≤ 0.25
VKSR | ≤ 0.25
KYQK | ≤ 0.25
VRMC | ≤ 0.25
HWDL | ≤ 0.25

Variant | enrichment ratio
RGDW | ≤ 0.25
PWYH | ≤ 0.25
INVE | ≤ 0.25
SKWQ | ≤ 0.25
ITED | ≤ 0.25
IPKH | ≤ 0.25
KFWN | ≤ 0.25
VGDK | ≤ 0.25
DIFH | ≤ 0.25
LAGS | ≤ 0.25
CYLA | ≤ 0.25
HCTD | ≤ 0.25
VLKN | ≤ 0.25
WFWL | ≤ 0.25
ERMT | ≤ 0.25
EFTK | ≤ 0.25
LECY | ≤ 0.25
IKMP | ≤ 0.25
MSHT | ≤ 0.25
IIMY | ≤ 0.25
VRND | ≤ 0.25
KAHY | ≤ 0.25
RDAA | ≤ 0.25
